Active and inactive are the calls of the source. Cut-off read from the data, not from the text of the source: active = EC50 of 10 µM or less and inactive = more.
Target: Melanocortin receptor 4 (Homo sapiens, UniProt P32245)
Format: functional, cell-based
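Note: human U2OS cells with tagged receptor and beta-arrestin; potency of agonists that increase receptor coupling to beta-arrestin.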

Sequence of Melanocortin receptor 4 (P32245 whole entry): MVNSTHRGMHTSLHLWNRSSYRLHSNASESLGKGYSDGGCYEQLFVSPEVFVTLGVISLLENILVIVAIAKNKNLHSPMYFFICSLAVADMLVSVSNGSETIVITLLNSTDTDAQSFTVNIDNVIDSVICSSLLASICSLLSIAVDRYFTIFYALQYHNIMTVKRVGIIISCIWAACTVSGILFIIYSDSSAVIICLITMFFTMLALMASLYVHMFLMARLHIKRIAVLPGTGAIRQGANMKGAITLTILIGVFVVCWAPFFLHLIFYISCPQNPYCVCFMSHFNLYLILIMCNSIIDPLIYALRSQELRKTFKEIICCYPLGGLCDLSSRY

CCCCCCCCCCCCCCCC[n+]1ccccc1
EC50: inactive: > 89.2 µM
